Measured values taken from the supplement of paper PMC11417369.
± gives the standard deviation of the averaged measurements. The list shows a part of the results.

system: PfAP2-G AP2 domain (GST-tagged); experiment: gcPBM binding intensity (ln(normalized median fluorescence intensity)); higher = stronger DNA binding
Procedure, shortened: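 GST-tagged P. falciparum DNA-binding domains produced in E. coli were incubated for 1 h on an Agilent 4 × 180k array of primer-extended double-stranded 36-bp intergenic genomic probes with negative controls. Binding intensity is the highest Masliner-normalised natural-log median intensity across replicate spots of either probe orientation, with bound protein detected by Alexa488 anti-GST antibody at 488 nm.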

Sequence	gcPBM binding intensity (ln)
ATAGGGTTTCTACTTTAACATTTTTGAAATATTATA [GTGCAC_negctrl_site260]	9.98 ± 0.13
TTTATTTATATAATTACACACATATATACTCAAATG [CACACA_site5543]	10.1 ± 0.19
ATATGTACTATACGCACACACACTCACATATTTATA [CACACA_site7510]	11.2 ± 0.67
TATTATAAATAAATAGAAAAAAAAATGATAAATGGA [CACACA_negctrl_site865]	9.85 ± 0.028
ATAATAAATACACTAGTGCAAAATAATATATGTACT [GTGCAC_site9707]	10.38 ± 0.099
TATTTAGACATAACAAATAGACTAACAAAAGATTTA [GTGCAC_negctrl_site614]	9.87 ± 0.071
AAATGTGTTAATGTGCGTACACATATATATAATATT [XGTACX_site2792]	11.7 ± 1.1
ATCACTAATTTTTTTACACACCACAATTTAATTTTT [CACACA_site1186]	10.2 ± 0.18
AATATATACACATGCGCACACACAAGTGGGAAATTT [CACACA_site8527]	10.4 ± 0.28
TTTATATTTCATTTGTTATTTTTCTTGGTTCTATAT [TGCATGCA_negctrl_site23]	9.89 ± 0.085
TTTTTTTTTTTTTTTTTTATATTTCATAATTTCATT [XGTACX_negctrl_site579]	9.33 ± 0.71
TTTTGCCTGAACAATGCATGTTATTTTTATTTTTTT [TGCATGCA_site673]	9.73 ± 0.26
TCATTTAAGTCATATTGAAATATGCATTATTCAAAA [CACACA_negctrl_site958]	9.88 ± 0.2
ACCAATTTGACAAACTGTACAAAAAAAATATTAAAA [XGTACX_site1186]	11 ± 0.56
TATATATTCCTCCATAGTACAATAATAAAGATAAAA [XGTACX_site5785]	10.6 ± 0.35
TACACAAAAATAAACACACACACATATATATATATA [CACACA_site1000]	10.1 ± 0.64
CGCGAACATACATACACACACATATATATATCTGTA [CACACA_site4277]	10 ± 0.14
CTTTCCCTATATTGCTGTACATGTATTCAAAAAACA [XGTACX_site353]	11.3 ± 0.83
ATTTATATATATGTATGTACGTATGTGTGTATATGT [XGTACX_site7587]	11.4 ± 0.88
AACACCCAAAAACACACACACATACATACATACATA [CACACA_site4411]	10.1 ± 0.16
AACATTAATTTCCTATGTACTTAATATATTGTTTTT [XGTACX_site4440]	11 ± 0.72
TAATTAGTTTTTACTTTTTTTTTTTTTTTTCTATAT [CACACA_negctrl_site1024]	9.66 ± 0.085

Sequence	gcPBM binding intensity (ln)
TATATATACTTAGAAACACACAAAAATATTTTATAA [CACACA_site2578]	10.01 ± 0.014
TATAACTTATTTTTTAGTACATATTATAGTTCATTT [XGTACX_site8649]	10.9 ± 0.59
TTATGTATATTATAAATTAATACCTTTAAATTAATA [CACACA_negctrl_site67]	9.74 ± 0.21
ATAATCCTGAAACACACACACACACCCATAAATAAA [CACACA_site481]	10.2 ± 0.33
TGTGATTATGATAAAAGTACAGAAATAAATATACTA [XGTACX_site38]	11.4 ± 1
ATTCCTCATTAATATTCTTATTTTTTAATTCACATT [XGTACX_negctrl_site329]	10 ± 0.085
TAAAAGGAGACATATACACACATATATATATATATA [CACACA_site5539]	10 ± 0.3
TTTATTTAAAATAAGTGTACTAGAAAAATTAAGCAG [XGTACX_site4982]	11.5 ± 0.95
ATAAAAAGCTAAAAAGTGCAAAAAGTAAATATTTAA	10.02 ± 0.049
TTTTATAAAGAACACAGACACACAAAGAAAGAACCA [CACACA_site4174]	10.6 ± 0.48
CCTTTTTCTAATGGATGTACTTATTATATACATTAT [XGTACX_site281]	11.2 ± 0.69
AAGAAAAGTAAATATGCATGTAGGGTAGGTTATTTT [TGCATGCA_site46]	10 ± 0.071
ATATTTTTTCTGAACGGTACAGAATTTTTCAAGATT [XGTACX_site484]	10.5 ± 0.33
TATATATATCTGTATACACACATATGTATGTTATGT [CACACA_site6090]	10.1 ± 0.13
AAAATAAAAAGAAATAAATTAACAGTAAGGAAAAAA [CACACA_negctrl_site1105]	9.85 ± 0.042
TGAATAATCAATAGTACACACATATAAATATATATA [CACACA_site2813]	11.2 ± 0.88
AAATTTATATATAGTTGTACAAAAATATGTTTCGTA [XGTACX_site4801]	11.2 ± 0.57
TTATTTTATCACACATGTACATATGTTAATTTTTTT [XGTACX_site5598]	11 ± 0.42
AACATTTATATTTAAGTGCAGATGCTGTAATTTAGA	9.805 ± 0.007
TTTTTATAACAAAGTATTTAAATAATTTATACTAAT [TGCATGCA_negctrl_site104]	9.97 ± 0.25
GAACAAATTACAAGTTGTACTTTATGTAAATTATTA [XGTACX_site5304]	11.2 ± 0.73
ATGCGTTCATACATACATACATACATACAATTTGTA [TGCATGCA_negctrl_site50]	10.3 ± 0.23

Sequence	gcPBM binding intensity (ln)
TTTATTTTTATTTTTGTGCACGGGATTAAATAAAAG [GTGCAC_site9842]	10.7 ± 0.63
TTTTTTTTTTTTTTTCTTTTTTATTCTCACAAAAAA [CACACA_negctrl_site1790]	9.63 ± 0.32
TTTTGAATTAAACAAGCATGCTTTATTTACTTCTTA [TGCATGCA_site289]	9.49 ± 0.27
TAATTCATCCTATGCACACACAATACCAAAATGTGC [CACACA_site4269]	10.3 ± 0.23
TAATTTATTAATAATTGTACAGATATTATACTTAAA [XGTACX_site8947]	10.8 ± 0.55
TGCTCATGAGGTCAGAGTACAAAATAGTAAATGTAT [XGTACX_site2973]	11.1 ± 0.61
AATAAGCATAGACACACACACAAAAAAAAAAAAAAA [CACACA_site6476]	10 ± 0.45
TACACAAACAGACACACACACACACGCGCACAAAAA [CACACA_site7192]	10.6 ± 0.38
ATTACATGTATACATGTCAACACGTATAAAAAAAAA [CACACA_negctrl_site1154]	10.4 ± 0.24
ATTATAAATATATTTTGTACTTAAAAGGAAAAAAAA [XGTACX_site55]	11 ± 0.67
TTAACATCTTCGTTGACACACAAAAAAAAAAATAAT [CACACA_site1819]	10.4 ± 0.42
GATTATCTTCAAGTATGTACACACTATATATAATAA [XGTACX_site5108]	11.4 ± 0.94
AATAAATAGAGGAAATGTACATATAAAAATAATTTC [XGTACX_site2454]	11 ± 0.3
GCACGAAACAATGTATATATATATATATATATATAT [GTGCAC_negctrl_site412]	10 ± 0.57
TTCTTTATGGAAGTGTAAAAAAAGAAATACTTTTTT [CACACA_negctrl_site915]	10.2 ± 0.28
TATTTTTATATATAATCACACATTGGAATGTTCTAA [CACACA_site5540]	9.775 ± 0.021
ATAAATGATAGTAAAAGTACACAAAATGTTTTAAAA [XGTACX_site1623]	11.5 ± 0.88
ATATAACAGAAACACACACACATATATATATATTAT [CACACA_site4140]	9.9 ± 0.12
AATATAAGATTATTATGTACATAATAAATATGTATT [XGTACX_site4773]	11 ± 0.42
ATATAAGTATAATTATGTACTTATACTTATATAAAT [XGTACX_site5585]	11.2 ± 0.71
ATATAATATCTGTATACACACATATTATATAATATT [CACACA_site5940]	9.99 ± 0.057
TTTGATTTTAATGTGTGTACACATTTATTTATATAA [XGTACX_site4806]	11.8 ± 1.2

Sequence	gcPBM binding intensity (ln)
GATTTATATTTTAAAAGTACAAGTTAAAATAAAAGT [XGTACX_site7059]	11.5 ± 0.89
TTTTATTTAGGAGGTGCATGTAATACGGAACATAAT [TGCATGCA_site827]	10.5 ± 0.47
CCATAACTCCTATGCACACATAAATATTACAGAGAT [CACACA_site5984]	10.2 ± 0.16
TTTTTTTTTTTGGTTACACACATTTGTATATTCTCA [CACACA_site134]	10.3 ± 0.18
CATATTAATACAGAATGTACGGATAACAAACTGTTT [XGTACX_site7935]	10.9 ± 0.58
GGTCATCATCGGTATTGTACAAAAATGTGAAAATTA [XGTACX_site639]	11 ± 0.62
ATAATTATATGATGAGTGCACAATAAAAATATCGTT [GTGCAC_site9920]	10.3 ± 0.2
TTTATTTATTTATATTTTTTTATATAATTTATATAT [GTGCAC_negctrl_site301]	9.68 ± 0.12
AAAGGTATATATGTGTGTACATATATATATATATAT [XGTACX_site5629]	11.2 ± 0.72
CATATAATAAATAATACACACATATTGGAAATATAT [CACACA_site3212]	9.98 ± 0.057
CACATTTCTGTAGTTGCATGTAGAAAAAAAAAAAAA [TGCATGCA_site810]	10.2 ± 0.28
CGTAGCCGCACTAACACACACAAATATACGCAATCA [CACACA_site2898]	10.2 ± 0.18
AAAAAAAAAAAAAATAATAAATAAATAAATAAATAA [GTGCAC_negctrl_site505]	9.56 ± 0.17
AGGAAAAAAAGTAGCACACAAATATTTATAATATAT [CACACA_site2437]	10.3 ± 0.2
AACATATTTATATACACACACATATTTATATGAAAT [CACACA_site6268]	9.905 ± 0.021
GAGAGGATACATACATGTACATAAATATTTTATTTT [XGTACX_site5129]	11.1 ± 0.67
AAAAATAAAAAAAAATTAAAATATATATATTTTGTT [TGCATGCA_negctrl_site102]	9.34 ± 0.29
ATATTTTGGGTGTTGTTTTTTTTTAAAACTCTTTAA [CACACA_negctrl_site1255]	10.3 ± 0.17
ATTAGTTTATATGAATGATTTTTCTTTTTTTTTTTT [CACACA_negctrl_site88]	9.49 ± 0.3
TTACTATTTCACTGTGCATGCAACAAAAATCTATCT [TGCATGCA_site808]	10.3 ± 0.31
ATTATATTAAAATATTCACACACTAACGTAAATCAT [CACACA_site8887]	9.92 ± 0.14
